This passage reports binding signal results from article PMC12136788.

First the molecules themselves.
B1: 107693362_107693482_2543_CDS_ENSMUSG00000032582_ENSMUST00000035201|mouse|control|control (ssRNA)
RNA: GGGAGUUCUACAGUCCGACGAUCGUAAGUGUGACCCAUGGGGCCAGUCCUGUUCUUGAUGAUGCGGACAUUGGCAGUAGUGAGAUGCACGUAGGGCUCCAGCACUUCGACUAUCACUUCGGGUGGAGUGGAACGAUAGAUACGCAACAGAGGAUUGAGCAUCA
B2: chr5:172341789:172341790:+_ENSG00000113719_ENST00000393784|hu_hu|FALSE|FALSE (ssRNA)
RNA: GGGAGUUCUACAGUCCGACGAUCGGGGACCUUGUUGAUGCUGAACUGCCCCUCGAAGCGGCAGCCUGCCCCAUUGUUCAGCGGGAUCUUCAUGGAGUUGUCGAUGUGGCCCACUUCGUGCCUGCCCAUCUCAUCCUGAAUGUCCAACAGAGGAUUGAGCAUCA
B3: 36140214_36142007_1440_3pUTR_ENSG00000100320_ENST00000405409|human|control|control (ssRNA)
RNA: GGGAGUUCUACAGUCCGACGAUCUGGGGGGCUGUCCCAUUUGCAGGGGUCUCACGUCACUUCAGUAGGGGGCAAAUCGGCUGUAGCCACCUCGGUAUAAACUCGCCACAGCGCCAACUCCAUAGCUAGCGGCAGGGGCAAGGGCAACAGAGGAUUGAGCAUCA
B4: chr13:36158134:36158135:+_ENSG00000172915_ENST00000537702|hu_mus|FALSE|FALSE (ssRNA)
RNA: GGGAGUUCUACAGUCCGACGAUCGGUUGUGAAUGGCUCAAUCCGAACAAGCCAUGACAGGGCGGAAGUCGCCGUUGAGUAAUGUGUGUUGUAGUGGAAGGGUGGGCUUUGAUCCUCCUCCCAUGUCUCAUAGCGCUCUGCGUACAACAGAGGAUUGAGCAUCA
B5: chr4:40633508:40633509:-_ENSMUSG00000028411_ENSMUST00000129021|mus_hu|FALSE|FALSE (ssRNA)
RNA: GGGAGUUCUACAGUCCGACGAUCGCUGCAUGUUUUAAUUUAGGAAAUGAGUAGAAGUUCACAAGCAACCCAGAAUAGGUGCCAGCAGUUUGCUCCAGUGGGCCACACCACAGCAGCAGCUCAGGCUCUGCAGAAUCACUGUGUCAACAGAGGAUUGAGCAUCA
B6: 46776515_46780490_4841_CDS_ENSG00000175216_ENST00000415402|human|control|control (ssRNA)
RNA: GGGAGUUCUACAGUCCGACGAUCGUUGUAGAUGAGUCUUAGCUGCAUAAAAGUGGCUAUCAGAAACUGAUCAAUAUGGCCGGACAUGGCUUCAGCUUUGUCUUCCUGUCUCAGGACCUCAUCGAUCUGUGUCAGAGCUUGGAUCAACAGAGGAUUGAGCAUCA
B7: chr11:85023558:85023559:-_ENSMUSG00000018481_ENSMUST00000018625|mus_mus|motif|central (ssRNA)
RNA: GGGAGUUCUACAGUCCGACGAUCGCCAUGUUUAGACAGCUUAUCCAUGUAUGUCUGAGCUAAUUUAAAUGUUUCUUCACCGGGAUGAUAUUUACAAUUUCCAUUUCGCACAUGAAGCAACCUCACACAACACUCCACUGCUCGCAACAGAGGAUUGAGCAUCA
B8: 18847280_18847400_8384_CDS_ENSG00000157106_ENST00000446231|human|control|control (ssRNA)
RNA: GGGAGUUCUACAGUCCGACGAUCUACUGUGGUGUUACAGAUGAGCUCUUCCAUCCAGGUCUUCCACUGUUCAAUUCGAUGUUUCUGAAAUAUGGCCUUCGGAUACUGCAGGGCCACGGUUGCAUAGUGAUGCAGUUGCUCCAGCAACAGAGGAUUGAGCAUCA
B9: chr11:87793471:87793472:-_ENSMUSG00000020483_ENSMUST00000020775|mus_mus|mus_mus_mus_hu_False|1_28 (ssRNA)
RNA: GGGAGUUCUACAGUCCGACGAUCUGGACUUGAAAAUAAAAGAAUAAGCUGGAUCCCCCACCCCCCCACAUUGUCAACCCUACACGAGAGUUUUGAAGGCGACUCAUGAAUCAGCAGAGCUCAAACGGCAAUGACCACCCACCCCAACAGAGGAUUGAGCAUCA
B10: 108228037_108228157_4863_CDS_ENSMUSG00000034610_ENSMUST00000043368|mouse|control|control (ssRNA)
RNA: GGGAGUUCUACAGUCCGACGAUCAGGAAAGUUAUACAAGGGCAUCUGAACCUGAUGAGGGGGCUGCCCUCCCUGCUGGGGUGGGCCAAGCUUAGGCUGGGAUCCUGGCUGGGAUGGAGGUGGGGGAAGAGCAGAUGGUUGGGGCAACAGAGGAUUGAGCAUCA
B11: 40924092_40924212_921_CDS_ENSMUSG00000028423_ENSMUST00000030133|mouse|control|control (ssRNA)
RNA: GGGAGUUCUACAGUCCGACGAUCUGGUCUUUCUCUAAGAUUAUCCUUUGGAAUGGGGGACAUGUUGGUUUUGGGCCCUGCAUUUAUAUGCCGCUGACUCUCCUGUUUUGGUGGGUUCCUGCCUGGCCGUGGUCUGGCCCCUUCCAACAGAGGAUUGAGCAUCA
B12: chr14:89307221:89307222:+_ENSG00000165533_ENST00000346301|hu_mus|hu_hu_hu_mus_False|38_88 (ssRNA)
RNA: GGGAGUUCUACAGUCCGACGAUCUCCUGUUUGGUUAGUGCCAGGGAGUUUCAAAGAUGUGCCAGGGCGUGGGACCUGAGCAAUAGCAUUUUCAUCCAGCAUCAUUUCAGCAAUUCCUUCCUGGUCCACAUCAAUUUCAUCUAUCAACAGAGGAUUGAGCAUCA
B13: chr17:60770872:60770873:+_ENSG00000011028_ENST00000303375|hu_hu|hu_hu_hu_mus_True|8_28 (ssRNA)
RNA: GGGAGUUCUACAGUCCGACGAUCUCUUUAAAAAAAAAAAAAAAAAGACAAACAAUAAUAGCACAUUUCGAGAAUCAAGAACUACAAUAGAGGGUCCGCUUUGAGUUGUCCAUGUUCUCGUCCUGCAACGCUGUCGCGGGACUGCAACAGAGGAUUGAGCAUCA
B14: 61722688_61724073_1616_CDS_ENSG00000082898_ENST00000401558|human|control|control (ssRNA)
RNA: GGGAGUUCUACAGUCCGACGAUCCUGUUCAUCAUCUUUUCCAUUUGAGUACGCAAGUCGAAUAUUGGUAUUUAAAGGAAGCAUCUGCUUUAGUUGCAUCAUUGUCAGAGUAAAUAGUGUUACAAAUUGUUCUUCAUAUUGGCUCAACAGAGGAUUGAGCAUCA
B15: chr22:32879901:32879902:+_ENSG00000100225_ENST00000397426|hu_mus|hu_hu_hu_mus_False|1_78 (ssRNA)
RNA: GGGAGUUCUACAGUCCGACGAUCCUCUUCCAUACUCAUGGCAUCCUGAAUUGACUCAGCUUCAAAAUUUUGACUAGGCCCUUCCAUACUGUCAUCAGUCCAGGCAUCAAAUGGGGUGGCCUGUCCUUGGGAUGAAUCACUUGGCAACAGAGGAUUGAGCAUCA
B16: chrX:20248820:20248821:+_ENSMUSG00000001924_ENSMUST00000001989|mus_mus|motif|central (ssRNA)
RNA: GGGAGUUCUACAGUCCGACGAUCGGCAAAGUCAGUCAUCACAAAGUCAGGCUCUACCAGUGAUGCUGGCAAGGAUUUAAAACGGAUCUUUUUCGGUACUUUGACCUGACUGACGAUGCCUCCACGGAUGUAGUCAGAGAAGUUCAACAGAGGAUUGAGCAUCA
B17: 74043533_74046451_841_CDS_ENSG00000164347_ENST00000509430|human|control|control (ssRNA)
RNA: GGGAGUUCUACAGUCCGACGAUCCAUCUUGUUUAAAAAACAGAUUCGAGGUAUAUUGUGUUUAUCAGCUUGCCUCCAUACUGUGAGAGUCUGGGCCUCUACACCAGCAGAGGCAUCAAAUACAGCCACUGCACCAUCCAACACCAACAGAGGAUUGAGCAUCA
B18: chr1:40030818:40030819:+_ENSMUSG00000026074_ENSMUST00000163854|mus_hu|FALSE|FALSE (ssRNA)
RNA: GGGAGUUCUACAGUCCGACGAUCUGGAGGGCUCUUUUUGAUGAAAGCACCAUAAUAUGUUGCAAUGUUUCUGUGAUGAGAGUAUUUCUUUAGCAUAUUUAUCUCCAGUUUGAUUUCUUCCUCUUCAUCCUCAGUGACAUCCAUCAACAGAGGAUUGAGCAUCA
B19: chr9:95013113:95013114:-_ENSG00000196305_ENST00000443024|hu_hu|hu_hu_hu_mus_False|88_108 (ssRNA)
RNA: GGGAGUUCUACAGUCCGACGAUCCUCAGUGAGAAAAGGCGUGUAAGGAGCCAUAAGUCUGCACAGAGAAAGCAGGACACUGAACAGUGUCUCCAGAGCCAUGACACAGUCUUCCACCCCACUCUCACCCUUUAACCUCCUCCUCAACAGAGGAUUGAGCAUCA
B20: 46797107_46800128_1708_CDS_ENSMUSG00000021374_ENSMUST00000021803|mouse|control|control (ssRNA)
RNA: GGGAGUUCUACAGUCCGACGAUCCUCAUUCUCUGGAGGUUUAGGAGCAACAAAAUGUGUUCUCUCUCUUCUCAUCUUGCCACCUCCACCACCUACUCCAGAAGAUAAACCAUUGGCUGCAGGAAUACUGAAAUUGGGGUAUGACAACAGAGGAUUGAGCAUCA
B21: 36558831_36558951_1026_CDS_ENSG00000116863_ENST00000373178|human|control|control (ssRNA)
RNA: GGGAGUUCUACAGUCCGACGAUCCAGGAUGUCUGUCUCCUCGUAGCCUUCACAGCUUUGCUGCCAGCUCUCUGGCACCUGAUCCAUCCCAUAGUAGGCACCAGCAAUGGCCCCAGCCAUGGUGGCAAUGGUGUCUGUGUCCCCCAACAGAGGAUUGAGCAUCA
B22: chr1:220276048:220276049:+_ENSG00000067704_ENST00000302637|hu_hu|hu_hu_hu_mus_True|18_48 (ssRNA)
RNA: GGGAGUUCUACAGUCCGACGAUCGCAAAUUGCCUGGUUGGCGGGAAUUGUCCAAGGCUGGGUGGUCCAAACUAAAACGCUAACAGGAGAUGAACCAUCUGUAAGAGACUCCAACUUUGGAGAAGGCCUCAGGAGGGGGAAUCUCAACAGAGGAUUGAGCAUCA

The other results are listed elsewhere or left out.

The target in this experiment is T1, UNK ZnF1-3 (human, UniProt Q9C0B0 31-174).
T1 sequence: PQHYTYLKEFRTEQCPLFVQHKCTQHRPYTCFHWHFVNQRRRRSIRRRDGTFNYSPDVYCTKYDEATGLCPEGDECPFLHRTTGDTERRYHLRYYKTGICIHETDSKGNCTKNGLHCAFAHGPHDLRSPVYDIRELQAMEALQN
Description: nsRBNS (natural sequence RNA bind-n-seq); RBNS binding buffer (assumed for nsRBNS): 25 mM Tris pH 7.5, 150 mM KCl, 3 mM MgCl2, 0.01% Triton X-100, 500 ug/ml BSA, 20 U/ml SUPERase-In, 4 C; UNK is unkempt and MSI1 is Musashi-1; names of the RNAs are library labels; protein concentration not given here; high values mean tight binding.
In turn, B1 returned a binding signal of 1.36 enrichment R. B2: the binding signal is 0.54 enrichment R. In turn, B3 came in with a binding signal of 0.946 enrichment R. Consider B4, for which the binding signal amounted to 0.748 enrichment R.

B5: the binding signal was found to be 1.45 enrichment R. In the case of B6, the binding signal amounted to 0.911 enrichment R. With B7 the figure was 0.929 enrichment R; with B8, 0.854 enrichment R.

In turn, B9 returned a binding signal of 2.28 enrichment R. With B10 the figure was 2.15 enrichment R; with B11, 0.484 enrichment R; with B12, 1.01 enrichment R.

For B13, the binding signal turned out to be 2.06 enrichment R. The molecule B14 came in with a binding signal of 1.03 enrichment R.

Molecule B15 displayed a binding signal of 1.13 enrichment R. With B16 the figure was 0.622 enrichment R. The molecule B17 returned a binding signal of 0.731 enrichment R. With B18 the figure was 0.807 enrichment R. For the molecule B19, the binding signal came to 1.4 enrichment R. With B20 the figure was 1.32 enrichment R; with B21, 0.677 enrichment R. On to B22, for which the binding signal stood at 1.79 enrichment R.
